# Data taken from the RNAGym collection of RNA variant scans (doi:10.1093/nar/gkz1192).
# The source gives no read counts; variants with many changes may rest on few reads.
# B1: CPEB3 Ribozyme (parent)
# chain: UAACAGGGGGCCACAGCAGAAGCGUUCACGUCGCAGCCCCUGUCAGAUUCUGGUGAAUCUGCGAAUUCUGCUGUAUAUCUC
# Variants of: B1
# Test: self-cleavage, relative activity (ratio to wild type); higher = more cleavage; in vitro, sequencing
# Outline: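 For each CPEB3 ribozyme variant, relative activity is its cleaved/total read fraction divided by the unmutated ribozyme's. Barcoded error-prone PCR libraries were transcribed by T7 RNA polymerase (5 hours, 37°C) and held in DNase I for 15 min before an EDTA stop, with cleavage occurring throughout. Template-switching reverse transcription and Illumina sequencing were used to read the RNAs. A 5-read minimum applied, and results are the mean of three batches.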
row,Variant,self-cleavage
1,UAACAGGGGGCCACAGCAUAAGCGUUCACGUCGCAGCCCCUGUCAGAUUCUGGUUAUUCUGCGAGUUCUGCUGUAUAUCUC [G19U G55U A57U A65G],0.1
2,UAACAGGGGGCCACAGCAUAAGCGUUCACGACGCAGCCCCUGUCAGAUUCUGGUGAAUCCGCGAAUUCUGCAGUACAUCUC [G19U U31A U60C U72A U76C],0.05
3,UAACAGGGGGCCACAGCAUAAGCGUUCACGUCGCAGCCCCUGUCAGAUUCUAGUGAAUCUGCGGAUUCUGCUGUAUACCUC [G19U G52A A64G U78C],0.26
4,UAACAGGGGGCCACAGCAUAGGCGUUCACGUCGCUGCCCCUGUCAGAUUCUGGCGAAUCUGCGAAUUCUGCUGUAUAUCUC [G19U A21G A35U U54C],0.06
5,UAACAGGGGGCCACAGCAUAAGCGUUCACGUCACAGCCCCUGUCAGAUCCUGGUGAAUCUGCGAAUUCAGCUGUAUAUCUC [G19U G33A U49C U69A],0.06
6,UAACAGGGGGCCACAGCAUAAGCGUUCACAUCGCAGCCCCUGUCAGAUCCUGGUGAAUUUGCGAAUUCUGCUGUAUACCUU [G19U G30A U49C C59U U78C C81U],0.05
7,UAACAGGGGGCCACAGCAUAAGCGUUCACGUCGCAGCCCCUGUCAGAUUCUGGUGGGUCUGCGAAUUCUGCUGUAUAUCUC [G19U A56G A57G],0.17
8,UAACAGGGGGCCACAGCAUAAGCGUUCACGUCGCAGCCCCUGUCAGAUUCUGGUGGGUCUGCGAAUUCUGCUAUAUAUCUC [G19U A56G A57G G73A],0.1
9,UAACAGGGGGCCACAGCAUAAGCGUUCACGUCGCAGCCCCAGUCAGAUUAUGGUGAAUCUGCGAUUUCUGCUGUAUAUCUC [G19U U41A C50A A65U],0.07
10,UAACAGGGGGCCACAGCAUAAGCGUUCACGUCGCUGCCCCUGACAGACUCUGGUGAAUCUGCGAAUUCUGCCGUAUAUCUC [G19U A35U U43A U48C U72C],0.26
11,UAACAGGGGGCCACAGCAUAAGCGUUCACGUCGCAGCCCCUGUCAGAUUCUGGUGAAUCUGCGGAUUCUGCUGUAUACCCC [G19U A64G U78C U80C],0.13
12,UAACAGGGGGCCACAGCAUGAGCGUUCACGUCGCAGCCCCAGUCAGAUUCUGGUGAAUCUGCGAAUUCUGCUGUAUAUCUC [G19U A20G U41A],0.25
13,UAACAGGGGGCCACAGCAUAAGCGUUCACGUCGCAGCCCCUGUCUGAUUCUGGUGAAUCUGCGAGCUCUGCUGUAUAUCUC [G19U A45U A65G U66C],0.07
14,UAACAGGGGGCCACAGCAUAAGCGUUCACAUCGCAGCCCCUGACAGAUUCUGCUGAGUCUGCGAAUUCUGCUGUAUAUCUC [G19U G30A U43A G53C A57G],0.19
15,UAACAGGGGGCCACAGCAUAAGCGUUCACGCCGCAGCCCCUGUCAGAUUCUGGUGAAUCUGCGAAUUCUGCAGUAUUUCCC [G19U U31C U72A A77U U80C],0.23
16,UAACAGGGGGCCACAGCAUAAGCGCUCCCGUCGCGGCCCCUGUCAGAUUCUGGUGAAUCAGCGAAUUCUGCUGUAUAUCUC [G19U U25C A28C A35G U60A],0.15
17,UAACAGGGGGCCACAGCAUAAGCGUUCACGUCGCAGCCCCCGUCAGAUUCUGGUGAAGCAGCGAAUUCUGCUGUAUAGCUC [G19U U41C U58G U60A U78G],0.1

row,Variant,self-cleavage
1,UAACAGGGGGCCACAGCAUUAGCGUUCACGUCGCGGCCCCUGUCAGAUCCUGGUGAAUCUGCGAAUUCUGCUGUAUAUCUC [G19U A20U A35G U49C],0.27
2,UAACAGGGGGCCACAGCAUAAGCGCUCACGUCGCGGCCCCUGUCUGAUCCUGGUGAAUCUGCGGAUUCUGCAGUAUAUCUC [G19U U25C A35G A45U U49C A64G U72A],0.04
3,UAACAGGGGGCCACAGCAUGAGCGUUCACGUCGCAGCCCCUGUCAGAUUCUGGUGAAUCUGCGGAUUCUUCUGUAUAUCUC [G19U A20G A64G G70U],0.14
4,UAACAGGGGGCCACAGCAUAAGCUUUCACGUCGCAGCCCCUGUCAGAUUCUGGUGAACCCGCGAACUCUGCUGUAUAUCUC [G19U G24U U58C U60C U66C],0.04
5,UAACAGGGGGCCACAGCAUUAGCGCUCACGUCGCAGCCACUGUCAGAUUCUGGUGAAUCUGCGUAUUCUGCUGUAUAUCUC [G19U A20U U25C C39A A64U],0.18
6,UAACAGGGGGCCACAGCAUAAGCGUACACGUCGCAGCCCCUGUCAGAUUCUGGUGAAUCUGCGAAUUCUGCCGUAUAUCUC [G19U U26A U72C],0.09
7,UAACAGGGGGCCACAGCAUUAGCGUUCACGUCGCAGCCCCUGUCAGAUUCUGGUGAAUCUGCGAGUUCUGCUGUAUAUCUC [G19U A20U A65G],0.24
8,UAACAGGGGGCCACAGCAUAAGCGCUCACGUCGCAGCCCAUGUCAGAUUCUGUUGAAUCUGCGAAUUCUUCUGUAUAUCUC [G19U U25C C40A G53U G70U],0.1
9,UAACAGGGGGCCACAGCAUAAGCGUUCACGUCGCAGCCCCCGACAGCUUCAGGUGAAUCUGCGAAUUCUGCUGUAUAUCUC [G19U U41C U43A A47C U51A],0.09
10,UAACAGGGGGCCACAGCAUAAGCGUUCACGUCGCAGUCCCUGUCAGAUUCCGGUGGAUCUGCGAAUUCUGCUGUAUAUCUC [G19U C37U U51C A56G],0.12
11,UAACAGGGGGCCACAGCAUAAGCGUUCACGUCGCAGCCCCUGUGAGGUUCUGGUGAAUCUGCGAAUUCUGCUGUAUAUCUC [G19U C44G A47G],0.14
12,UAACAGGGGGCCACAGCAUAAGCGUUCACGUCGCAGCCCCUGUAAGAUUCUGGUGAAUCUGCGAAUUCUGCUGUGUAUCUC [G19U C44A A75G],0.26
13,UAACAGGGGGCCACAGCAUAAGCGUCCACGUCGCAGCCCCCGUCAGGUUCUGGUGAAUCUGCUAGUUCUGCUGUAUAUCUC [G19U U26C U41C A47G G63U A65G],0.1
14,UAACAGGGGGCCACAGCACAAGCGUUCACGUCGCAGCCCCUGUCAGAUUCUGGUGAAUCAGCGAAUUCCGCUGUAUAUCCC [G19C U60A U69C U80C],0.24
15,UAACAGGGGGCCACAGCAUAAGCGUUCACGUCGCAGCCCACGUCAGAUCCUGGUGAACCUGCGAAUUCUGCUGUAUAUCUC [G19U C40A U41C U49C U58C],0.1
16,UAACAGGGGGCCACAGCAUAAGCGUUCCUGUCACAGCCCCCGUCGGAUUCUGGUGAAUCUGCGAAUUCUGCUGUAUAUCUC [G19U A28C C29U G33A U41C A45G],0.06
17,UAACAGGGGGCCACAGCAUAAGCGUUCGCGUCGCAGCCCCUGUCAGAUUCUGGUGAGUCUGCGAAUUCUGCUGUAUAUCUC [G19U A28G A57G],0.18
